According to PubChem BioAssay AID504832 (National Center for Advancing Translational Sciences (NCATS), 2011):
Several values for one entry are separate records, joined by “and”; a condition that tells them apart may be missing. Identical values can stand only once. In all, about 310,000 compounds went through this assay and about 18,000 (5.8%) were called active. The inconclusive results got no clear call from the source; some entries with a clear call stand among them for comparison. Calls follow the shape of the dose curve; as a rule, active = well fitted inhibition curve with a large enough effect; inconclusive = small, poorly fitted or top-dose-only effect, or another doubt; inactive = no such curve, though single readings can be large or run the other way. Potencies beside an inconclusive call are fits to weak or partial responses and may not hold up.
% is scaled to controls: 0 for no effect and ±100 for the full control effect; potency is read from the fitted curve at half-maximal effect; tags tell the direction and shape of the fitted curve.

Experiment: Primary qHTS for delayed death inhibitors of the malarial parasite plastid, 48 hour incubation
Details: P. falciparum luciferase growth in erythrocytes; series mostly up to 28.7 µM; activity change, negative = inhibition: at the top concentration
Outline: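 First compound was added to culture medium, then infected red cells at 0.1% parasitemia and 2% hematocrit (final). After incubation at 37 C under 5% CO2, luciferase detection reagent was dispensed and light output recorded.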
With `CCNc1nc(NC(C)C)nc(ON=C(C)C)n1` the Potency was active: 8.28 µM. For `C=CCNCc1ccc(C(=O)NCCCCCCC)cc1[N+](=O)[O-]`, the Potency was inconclusive: 13.1 µM [inhibitor, partial curve, poor fit]. In the case of `COc1ccc(N(C)S(=O)(=O)c2cccc(C(=O)NC3CCCCCC3)c2)cc1`, the Potency is reported as inconclusive: 6.57 µM [inhibitor, partial curve]. For `CCc1cccc(CC)c1NC(=O)CN1CCc2cc(OC)c(OC)cc2C1`, the “activity change, negative = inhibition” value was inactive: -4.67%. With `CC(=O)c1c(CSc2ccccc2)oc2ccc(O)c(CN(C)C)c12` the Potency was inconclusive: 11.7 µM [inhibitor, single point]. With `CCCOc1ccc(CCC(=O)N/N=C/c2ccc([N+](=O)[O-])o2)cc1` the Potency was inconclusive: 7.38 µM [inhibitor, partial curve, poor fit]. In the case of `O=C(CN1CCCCC1)NC(=O)NC1CCCCC1`, the “activity change, negative = inhibition” value is reported as inactive: 64.9%. In the case of `O=C(CCl)Nc1cccc(-c2cnc3ccccc3n2)c1`, the Potency is reported as active: 1.04 µM. With `Nn1c(SCc2ccc([N+](=O)[O-])cc2)nc2ccccc2c1=O` the “activity change, negative = inhibition” value was inactive: -1.8%. In the case of `COc1ccc(NS(=O)(=O)c2ccc(OC)c3ccccc23)cn1`, the Potency is reported as inconclusive: 2.08 µM [inhibitor, partial curve, poor fit]. In the case of `CNC1=CN(O)C(c2ccccc2)=c2cc(Cl)ccc2=N1`, the Potency is reported as active: 19 µM. In the case of `c1ccc(N2CCN(C3CC4CCC3C4)CC2)cc1` (stereo not drawn), the “activity change, negative = inhibition” value is reported as inactive: -2.48%. For `N#Cc1c(NC(=O)CCN2C(=O)c3ccccc3C2=O)oc(-c2ccccc2)c1-c1ccccc1`, the “activity change, negative = inhibition” value was inactive: 2.01%. With `CCn1c(COc2cccc(C)c2)nnc1SCC(=O)CC(=O)Nc1ccccc1OC` the Potency was inconclusive: 13.1 µM [inhibitor, single point]. For `COc1ccc(-n2cnnc2SCC(=O)c2ccc(S(=O)(=O)N3CCOCC3)cc2)cc1`, the Potency was inconclusive: 18.5 µM [inhibitor, single point]. With `Cc1cc2cc(CNC(=O)c3cccs3)ccc2n1C` the Potency was inconclusive: 18.5 µM [inhibitor, single point]. With `CCCC(C)CO` (stereo not drawn) the “activity change, negative = inhibition” value was inactive: 34.2%. In the case of `NC(=O)CC(NC(=O)c1ccccc1)c1ccc(N2CCC(Cc3ccccc3)CC2)c([N+](=O)[O-])c1` (stereo not drawn), the “activity change, negative = inhibition” value is reported as inactive: -26.1%. In the case of `CC(C)c1nnc(NC(=O)C2CCN(C(=O)c3ccco3)CC2)s1`, the Potency is reported as inconclusive: 5.22 µM [inhibitor, partial curve, poor fit]. In the case of `Cc1cc(NC(=O)CSc2nc(=O)n(CCN(C)C)c3c2CCCC3)no1`, the Potency is reported as inconclusive: 18.5 µM [inhibitor, single point]. For `CC(/C=C(\NC(=O)c1ccccc1)C(=O)N=Nc1c(O)[nH]c2ccc(C)cc12)=C\c1ccccc1`, the Potency was inconclusive: 18.5 µM [inhibitor, single point]. For `COc1cccc(C(O)c2nc3ccccc3n2C(C)C)c1` (stereo not drawn), the Potency was inconclusive: 18.5 µM [inhibitor, partial curve, poor fit]. In the case of `C=CCn1c(C)cc(C(=O)CSc2nnc(-c3cccc(S(=O)(=O)N(CC)CC)c3)o2)c1C`, the Potency is reported as active: 10.4 µM. In the case of `O=C(c1ccccc1)c1cc(-c2ccccn2)c(N2CCOCC2)s1`, the Potency is reported as inconclusive: 2.08 µM [inhibitor, partial curve, poor fit]. In the case of `O=C(NCCOc1cccc(Oc2ccccc2)c1)c1cc(-n2cnnc2)ccc1Cl`, the Potency is reported as inconclusive: 18.5 µM [inhibitor, single point]. For `CCN(CC(=O)Nc1ccc(NC(C)=O)cc1)C(=O)/C=C/c1c(C)nn(-c2ccc(F)cc2)c1C`, the Potency was inconclusive: 10.4 µM [inhibitor, single point]. With `C=Cn1cc[n+](CC(=O)c2ccc(Br)cc2)c1` the Potency was inconclusive: 18.5 µM [inhibitor, partial curve, poor fit]. For `NC(=O)c1cccc(-c2noc(-c3ccccc3F)n2)c1`, the Potency was inconclusive: 0.233 µM [activator, full curve, poor fit]. With `O=C(Cc1n[nH]c(=O)c2ccccc12)Nc1cc(C(F)(F)F)ccc1-n1cncn1` the Potency was inconclusive: 0.465 µM [inhibitor, partial curve, poor fit]. For `CS(=O)(=O)c1ccc(Sc2nc3ccccc3[nH]2)c([N+](=O)[O-])c1`, the Potency was inconclusive: 10.4 µM [inhibitor, single point]. In the case of `COCc1cc(=O)n2c([nH]c3ccccc32)c1C#N`, the “activity change, negative = inhibition” value is reported as inactive: 0.016%. With `O=[N+]([O-])c1ccc(Cl)c2c1C1C=CCC1C(c1ccccn1)N2` (stereo not drawn) the Potency was inconclusive: 18.5 µM [inhibitor, single point]. With `C#Cc1ccc([C@@H]2C=C(C(=O)Nc3ccccc3)O[C@H](OCC)[C@H]2CCCO)cc1` the Potency was inconclusive: 2.62 µM [inhibitor, full curve, poor fit]. For `COc1ccc(NC(=O)CC23CC4CC(CC(C4)C2)C3)cn1`, the “activity change, negative = inhibition” value was inactive: -17%. With `CN(CC(=O)Nc1ccccc1Cl)C(=O)C1CCN(S(=O)(=O)c2ccc3c(c2)OCCO3)CC1` the Potency was inconclusive: 18.5 µM [inhibitor, single point]. For `CCS(=O)(=O)c1ccc2c(c1)N(S(=O)(=O)c1cccs1)CC(C(=O)O)O2` (stereo not drawn), the Potency was inconclusive: 10.4 µM [inhibitor, partial curve, poor fit]. In the case of `CC(=O)Nc1ccc(OCC(=O)NCc2ccccc2)cc1`, the “activity change, negative = inhibition” value is reported as inactive: 13.2%. In the case of `CCCCOC(=O)c1ccc(NC(c2ccc(C)cc2)P(=O)(OC)OC)cc1` (stereo not drawn), the Potency is reported as inconclusive: 10.4 µM [inhibitor, single point]. In the case of `Cc1ccc(S(=O)(=O)N(C)C)cc1NC(=O)COC(=O)Cc1n[nH]c(=O)c2ccccc12`, the Potency is reported as inconclusive: 18.5 µM [inhibitor, single point]. With `Cc1nc2scc(-c3cccs3)c2c(=O)o1` the “activity change, negative = inhibition” value was inactive: -6.05%. With `Cc1cccc(C(=O)O/N=C2\CCS(=O)(=O)c3sccc32)c1` the Potency was inconclusive: 13.1 µM [inhibitor, partial curve, poor fit]. With `CCc1noc(C)c1C(=O)N(CCC(C)C)c1c(N)n(Cc2ccccc2)c(=O)[nH]c1=O` the Potency was inconclusive: 18.5 µM [inhibitor, single point]. For `c1cnc(NC2C3CC4CC(C3)CC2C4)nc1` (stereo not drawn), the Potency was inconclusive: 4.15 µM [inhibitor, partial curve]. In the case of `Cc1cccc2nc(-c3ccco3)c(Nc3ccc4c(c3)OCO4)n12`, the Potency is reported as inconclusive: 10.4 µM [inhibitor, partial curve]. With `CC(C(=O)NC1CCCC1)N(C(=O)c1snc(C(N)=O)c1N)c1ccc2c(c1)OCCO2` (stereo not drawn) the Potency was inconclusive: 10.4 µM [inhibitor, single point]. In the case of `CCOC(=O)N1CCN(S(=O)(=O)c2ccc(C(=O)NNc3nc4c(C)cc(C)cc4s3)cc2)CC1`, the Potency is reported as inconclusive: 13.1 µM [inhibitor, single point]. In the case of `COc1ccc([N+](=O)[O-])cc1C(=O)C(=O)c1ccccc1`, the “activity change, negative = inhibition” value is reported as inactive: 9.72%. With `CCOC(=O)C1CCCN(S(=O)(=O)c2ccc(F)c(C(=O)Nc3ccc(F)c(F)c3)c2)C1` (stereo not drawn) the Potency was inconclusive: 13.1 µM [inhibitor, single point]. In the case of `CCCCc1nc2ccccc2c(=O)n1-c1ccc(Cl)cc1[N+](=O)[O-]`, the Potency is reported as inconclusive: 10.4 µM [inhibitor, partial curve, poor fit]. For `COC(=O)[C@H](CC(C)C)NS(=O)(=O)c1ccccc1`, the “activity change, negative = inhibition” value was inactive: -17.2%. For `NS(=O)(=O)c1ccc(NC(=S)NC(=O)c2ccco2)cc1`, the Potency was “inactive and inconclusive: 4.65 µM [inhibitor, single point]”. With `COCCNC(=O)c1cnn2c1NC(c1ccco1)CC2C(F)(F)F` (stereo not drawn) the “activity change, negative = inhibition” value was inactive: 10.6%. For `Cc1cc(C)n(C)c(=O)c1C#N`, the Potency was inconclusive: 18.5 µM [inhibitor, single point]. In the case of `Cc1ccccc1CN1CCN(S(=O)(=O)c2ccc(F)cc2)CC1`, the Potency is reported as inconclusive: 14.7 µM [inhibitor, single point]. For `Cc1cccc(NS(=O)(=O)c2cc3c4c(c2)CC(=O)N4CCC3)c1C`, the Potency was inconclusive: 13.1 µM [inhibitor, partial curve]. In the case of `COC(=O)[C@]1(S(=O)(=O)c2ccccc2)C[C@@H]2ON=C(c3ccc(OC)cc3)[C@@H]2C1`, the Potency is reported as inconclusive: 18.5 µM [inhibitor, single point]. In the case of `CC1Sc2ccc(S(=O)(=O)CCC(=O)Nc3ccc(C(C)C)cc3)cc2NC1=O` (stereo not drawn), the “activity change, negative = inhibition” value is reported as inactive: -4.11%. In the case of `Cc1cc(N2CCN(c3ccccc3)CC2)n2cc(-c3ccccc3)nc2n1`, the Potency is reported as inconclusive: 5.22 µM [inhibitor, partial curve]. In the case of `Cc1cc(C)c2nc(SC(C)C(=O)NCC(=O)Nc3ccc(F)c(F)c3F)cc(C)c2c1` (stereo not drawn), the “activity change, negative = inhibition” value is reported as inactive: 1.73%. With `COCCn1c(Cc2ccccc2)nnc1SC(C)C(=O)NC1CC1` (stereo not drawn) the Potency was inconclusive: 13.1 µM [inhibitor, single point]. With `CC(C)CNC(=O)c1c(N)n(Cc2ccc3c(c2)OCO3)c2nc3ccccc3nc12` the Potency was active: 6.57 µM. In the case of `CCN(CC)CCn1c2c(c(SCC(=O)Nc3cc(C)ccc3C)nc1=O)CCC2`, the Potency is reported as inconclusive: 10.4 µM [inhibitor, partial curve, poor fit]. With `CCc1ccccc1NC(=O)CNC(=O)c1cn(Cc2ccccc2)nc1-c1cccnc1` the Potency was inconclusive: 11.7 µM [inhibitor, partial curve, poor fit]. For `Cc1sc(Nc2ccc([N+](=O)[O-])cc2)nc1-c1c(C)n(C)n(-c2ccccc2)c1=O`, the Potency was inconclusive: 1.31 µM [inhibitor, partial curve, poor fit]. For `CCCc1nnc(SCC(=O)N2CCCCC2C)n1CC` (stereo not drawn), the “activity change, negative = inhibition” value was inactive: 32.5%. In the case of `Cc1ccccc1CSc1nc2c(c(=O)[nH]1)CCC2`, the “activity change, negative = inhibition” value is reported as inactive: 14.7%. For `Cc1[nH]nc2c1C(c1ccccn1)N(c1ccc(Br)cc1)C2=O` (stereo not drawn), the “activity change, negative = inhibition” value was inactive: 14.1%. In the case of `CCc1ccccc1NC(=O)c1ccc([N+](=O)[O-])s1`, the Potency is reported as inconclusive: 16.5 µM [inhibitor, partial curve, poor fit].
